Values joined by “and” are separate entries in the source; they are usually repeats but may differ in a detail not shown here. Equal entries are not always repeated. Inconclusive results, whose numbers are uncertain, are shown with a selection of clear calls. Where the call is inconclusive, the potency comes from a doubtful curve fit. Active and inactive are the calls of the source. Calls come from the whole dose curve; as a rule, active = well fitted curve in the direction sought with a large enough effect; inconclusive = small, poorly fitted or top-dose-only effect, or another doubt; inactive = no such curve, though single readings can be large; an effect the other way counts as inactive or inconclusive.
Columns and labels:
[1] = system: CRL-7250; assay: Cytotoxic Profiling of Annotated Libraries Using Quantitative High-Throughput Screening (AID 1296008); details: Five cell lines viability, CellTiter-Glo ATP luminescence, 48-72 h; max response: stronger effect = lower value; note: nearly all actives have a fitted effect of over 60% in size; for max response: % is set by controls: 0 for no effect and ±100 for the full control effect
Procedure, shortened: (§1)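 Cytotoxicity was measured as CellTiter-Glo ATP luminescence, read after 10 min at room temperature. Compound treatment of the cells lasted 48 or 72 hr at 37 degrees Celsius in a qHTS format.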

[2] = system: NIH3T3; assay: as above; details: Five cell lines viability, CellTiter-Glo ATP luminescence, 48-72 h; max response: stronger effect = lower value
Procedure, shortened: as §1

[3] = P-glycoprotein substrates identified in KB-8-5-11 adenocarcinoma cell line, qHTS therapeutic library screen (AID 1346987); note: nearly all actives have a fitted effect of over 65% in size
Procedure, shortened: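 P-gp-mediated resistance screen: KB-8-5-11 cells treated 72 h with compounds in dose-response. CellTiter-Glo viability.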

[4] = Primary qHTS for inhibitors of nuclear receptor binding SET domain protein 2 (NSD2) in an isogenic RCH-ACV NSD2 p.E1099K mutant (9B) (AID 1645876); note: nearly all actives have a fitted effect of over 70% in size
[5] = Primary qHTS for inhibitors of nuclear receptor binding SET domain protein 2 (NSD2) in an RCH-ACV wild type WT cells (2C) (AID 1645877); details: activity change, negative = cell killing: at 44.9 µM (top of the series) unless noted; note: nearly all actives have a fitted effect of over 70% in size
[6] = system: HaCat; assay: Cytotoxic Profiling of Annotated Libraries Using Quantitative High-Throughput Screening (AID 1296008); details: Five cell lines viability, CellTiter-Glo ATP luminescence, 48-72 h; max response: stronger effect = lower value; note: nearly all actives have a fitted effect of over 60% in size; for max response: % is set by controls: 0 for no effect and ±100 for the full control effect
Procedure, shortened: as §1

[7] = system: OV90; assay: Primary qHTS to identify gynecologic anti-cancer compounds using libraries of approved drugs and bioactive compounds (AID 1345084); details: Gynecologic cancer cell panel viability, ATPlite luminescence, 48 h; series mostly up to 57.5 µM; note: nearly all actives have a fitted effect of over 55% in size; for activity change, negative = cytotoxicity: % is set by controls: 0 for no effect and ±100 for the full control effect
Procedure, shortened: (§2)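 Cell viability after 48 h drug treatment, ATPlite luminescence readout; five doses.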

[8] = Primary fluorescence-based thiol-reactive (MSTI) qHTS assay for identification of artifact compounds. (AID 1845221);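 note: thiol-reactive compounds lower the probe fluorescence signal; nearly all actives have a fitted effect of over 65% in size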
Procedure, shortened: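 Probe: MSTI 4 uM, PBS pH 7.4, 2% DMSO. Incubation 1 h, RT, light-protected. Readout fluorescence 525/598 nm.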

[9] = system: HeLa; assay: Primary qHTS to identify gynecologic anti-cancer compounds using libraries of approved drugs and bioactive compounds (AID 1345084); details: Gynecologic cancer cell panel viability, ATPlite luminescence, 48 h; activity change, negative = cytotoxicity: at 57.5 µM (top of the series); note: nearly all actives have a fitted effect of over 55% in size; for activity change, negative = cytotoxicity: % is set by controls: 0 for no effect and ±100 for the full control effect
Procedure, shortened: as §2

[10] = system: Zika virus NS2B-NS3 protease (unlinked complex); assay: Primary screen GU Rhodamine qHTS for Zika virus inhibitors: Unlinked NS2B-NS3 protease assay (AID 1347159); note: nearly all actives have a fitted effect of over 60% in size
Procedure, shortened: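 Compounds, tested up to 114 microM, were incubated for 15 minutes with 25 nM unlinked NS2B-NS3 protease at pH 8.0. Cleavage of 1.5 microM Rhodamine110 substrate was then followed by fluorescence for 15 minutes.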

[11] = system: PA-1; assay: Primary qHTS to identify gynecologic anti-cancer compounds using libraries of approved drugs and bioactive compounds (AID 1345084); details: Gynecologic cancer cell panel viability, ATPlite luminescence, 48 h; series mostly up to 57.5 µM; note: nearly all actives have a fitted effect of over 55% in size
Procedure, shortened: as §2

[12] = system: C33A; assay: as above; details: Gynecologic cancer cell panel viability, ATPlite luminescence, 48 h; series mostly up to 57.5 µM
Procedure, shortened: as §2

[13] = system: CAOV3; assay: as above; details: Gynecologic cancer cell panel viability, ATPlite luminescence, 48 h; activity change, negative = cytotoxicity: at 57.5 µM (top of the series)
Procedure, shortened: as §2

[14] = system: CASKI; assay: as above; details: Gynecologic cancer cell panel viability, ATPlite luminescence, 48 h; series mostly up to 57.5 µM
Procedure, shortened: as §2

[15] = system: Es-2; assay: as above; details: Gynecologic cancer cell panel viability, ATPlite luminescence, 48 h; series mostly up to 57.5 µM
Procedure, shortened: as §2

[16] = system: Hek293T; assay: as above; details: Gynecologic cancer cell panel viability, ATPlite luminescence, 48 h, control line for the selectivity index; activity change, negative = cytotoxicity: at 57.5 µM (top of the series) unless noted
Procedure, shortened: as §2

[17] = system: JEG-3; assay: as above; details: Gynecologic cancer cell panel viability, ATPlite luminescence, 48 h; series mostly up to 57.5 µM
Procedure, shortened: as §2

[18] = system: SKOV3; assay: as above; details: Gynecologic cancer cell panel viability, ATPlite luminescence, 48 h; series mostly up to 57.5 µM
Procedure, shortened: as §2

[19] = system: Tov-21-G; assay: as above; details: Gynecologic cancer cell panel viability, ATPlite luminescence, 48 h; activity change, negative = cytotoxicity: at 57.5 µM (top of the series) unless noted
Procedure, shortened: as §2

[20] = system: Tov112D; assay: as above; details: Gynecologic cancer cell panel viability, ATPlite luminescence, 48 h; series mostly up to 57.5 µM
Procedure, shortened: as §2
Potency is the fitted concentration of half-maximal effect; tags give direction and shape of the fitted curve.

SMILES: C[C@]12CC[C@@H]3c4ccc(O)cc4CC[C@H]3[C@H]1CC[C@H]2O
- Potency [1]: inconclusive: 26.4 µM [inhibitor, partial curve]
- Potency [2]: inconclusive: 33.2 µM [inhibitor, single point]

SMILES: Cc1ccc(S(=O)(=O)N2CCC[C@H]2c2ccc(F)cc2)cc1
- Potency [3]: inconclusive: 13 µM [inhibitor, partial curve, poor fit]
- Potency [4]: inconclusive: 14.5 µM [inhibitor, partial curve]
- Potency [5]: inconclusive: 14.5 µM [inhibitor, partial curve, poor fit]
- Potency [1]: inconclusive: 18.4 µM [inhibitor, single point]
- max response [6]: inconclusive: -35.2% [inhibitor]
- Potency [7]: inconclusive: 39.8 µM [cytotoxic, single point]

SMILES: CC(C)(C)NC(=O)[C@@H](c1cccnc1)N(C(=O)c1ccco1)c1ccc(C(C)(C)C)cc1
- Potency [4]: inconclusive: 23 µM [inhibitor, single point]
- Potency [5]: inconclusive: 23 µM [inhibitor, single point]
- Potency [8]: inactive
- max response [1]: inactive: 4.34%
- max response [6]: inactive: -16.4%
- Potency [9]: inactive

SMILES: O=S(=O)(c1cccc2cnccc12)N1CCCNCC1
- Potency [4]: inconclusive: 21.1 µM [inhibitor, single point] and inactive
- Potency [5]: inconclusive: 21.1 µM [inhibitor, partial curve] and inconclusive: 26.3 µM [inhibitor, single point]
- outcome [1]: inactive

SMILES: COc1ccc(C[C@@H](C)[C@@H](C)Cc2ccc(OC)c(OC)c2)cc1OC
- Potency [4]: inconclusive: 5.25 µM [inhibitor, partial curve]
- Potency [5]: inconclusive: 6.61 µM [inhibitor, partial curve, poor fit]
- Potency [1]: active: 3.32 µM
- Potency [2]: active: 2.35 µM

SMILES: C=C(C(=O)O)C1CCC2(C)CCCC(C)(O)C2C1 (stereo unspecified)
- Potency [3]: inactive
- Potency [10]: inconclusive: 79.4 µM [inhibitor, single point]
- Potency [8]: active: 21.2 µM
- Potency [1]: inconclusive: 20.6 µM [inhibitor, single point]
- outcome [6]: inactive
- Potency [11]: inactive

SMILES: CCC1C(=O)N(C)c2cnc(Nc3ccc(C(=O)NC4CCC(N5CCN(CC6CC6)CC5)CC4)cc3OC)nc2N1C(C)C (stereo unspecified)
- Potency [3]: active: 0.291 µM
- Potency [5]: active: 0.0258 µM
- Potency [1]: active: 4.61 µM
- Potency [2]: active: 1.64 µM
- Potency [12]: inconclusive: 44.7 µM
- Potency [13]: inconclusive: 11.2 µM [cytotoxic, partial curve, poor fit]
- Potency [14]: inconclusive: 22.4 µM [cytotoxic, partial curve, poor fit]
- Potency [15]: inconclusive: 0.398 µM [cytotoxic, partial curve, poor fit]
- Potency [9]: inconclusive: 15.8 µM
- Potency [16]: inconclusive: 17.8 µM
- Potency [17]: inconclusive: 20 µM
- Potency [7]: inconclusive: 15.8 µM [cytotoxic, partial curve, poor fit]
- Potency [11]: active: 0.316 µM
- Potency [18]: inconclusive: 20 µM [cytotoxic, partial curve, poor fit]
- Potency [19]: inconclusive: 50.1 µM [cytotoxic, partial curve, poor fit]
- Potency [20]: inconclusive: 0.1 µM

SMILES: C/C=C1\[C@H](O[C@@H]2O[C@H](CO)[C@@H](O)[C@H](O)[C@H]2O)OC=C(C(=O)O)[C@H]1CC(=O)OCCc1ccc(O)cc1
- Potency [5]: inactive
- Potency [8]: inconclusive: 13 µM [inhibitor, single point]
- max response [1]: inactive: -6.03%
- outcome [6]: inactive

SMILES: CCCNC(C)(C)COC(=O)c1ccccc1
- max response [1]: inactive: -0.75%
- outcome [6]: inactive

SMILES: O=C(Nc1cccc(Nc2ncc(Br)c(NCCc3cnc[nH]3)n2)c1)N1CCCC1
- Potency [3]: inconclusive: 37.2 µM [inhibitor, single point]
- Potency [1]: active: 4.18 µM
- Potency [2]: active: 4.69 µM

SMILES: C/C=C/c1ccc2oc(-c3ccc(O)c(OC)c3)c(C)c2c1
- Potency [10]: inconclusive: 20 µM [inhibitor, full curve, poor fit]
- Potency [4]: active: 14.5 µM
- Potency [8]: inconclusive: 5.32 µM [inhibitor, partial curve]
- max response [1]: inactive: -27.9%
- Potency [6]: inconclusive: 29.1 µM [inhibitor, single point]
- Potency [7]: active: 20 µM
- Potency [11]: inconclusive: 35.5 µM [cytotoxic, single point]
- Potency [18]: inconclusive: 31.6 µM [cytotoxic, single point]

SMILES: CN(C)CC1CCOC1(c1ccccc1)c1ccccc1 (stereo unspecified)
- Potency [10]: inconclusive: 31.6 µM [inhibitor, single point]
- Potency [4]: inactive
- max response [1]: inactive: -5.19%
- Potency [6]: inconclusive: 1.93 µM [inhibitor, single point]
- Potency [16]: inactive
- Potency [18]: inconclusive: 1.26 µM [rising, full curve, poor fit]

SMILES: CNCCN(C)Cc1cn[nH]c1-c1ccc(OC2CC(OCCC3CCOCC3)C2)cc1 (stereo unspecified)
- Potency [4]: inconclusive: 20.9 µM [inhibitor, partial curve]
- Potency [5]: inconclusive: 13.2 µM [inhibitor, partial curve]
- Potency [1]: inconclusive: 37.1 µM [inhibitor, single point]
- Potency [6]: inconclusive: 11.7 µM [inhibitor, single point]

SMILES: CCOC(=O)NNc1nncc2ccccc12
- Potency [3]: inconclusive: 16.4 µM [inhibitor, partial curve]
- max response [1]: inactive: -0.257%
- outcome [6]: inactive
- Potency [11]: inactive

SMILES: Cc1ccccc1-c1cc(N2CCN(C)CC2)ncc1N(C)C(=O)C(C)(C)c1cc(C(F)(F)F)cc(C(F)(F)F)c1
- Potency [10]: inactive
- Potency [4]: inactive
- max response [1]: inactive: 1.9%
- max response [6]: inactive: -0.694%

SMILES: COC(=O)[C@H]1[C@H]2C[C@@H]3c4[nH]c5cc(OC)ccc5c4CCN3C[C@H]2C[C@@H](OC(=O)COc2ccc(OC)cc2)[C@@H]1OC
- Potency [3]: inconclusive: 23.1 µM [inhibitor, single point]
- max response [1]: inactive: -0.18%
- outcome [6]: inactive

SMILES: CCC(C(=O)OCCOCCN(CC)CC)c1ccccc1 (stereo unspecified)
- Potency [1]: inconclusive: 5.96 µM [inhibitor, partial curve, poor fit]
- outcome [6]: inactive

SMILES: OCCNC1CCCc2c1[nH]c1ccc(-c3ccccc3)cc21 (stereo unspecified)
- Potency [3]: inconclusive: 26.4 µM [inhibitor, single point]
- Potency [4]: active: 11.8 µM
- Potency [5]: active: 11.8 µM
- Potency [1]: inconclusive: 29.1 µM [inhibitor, single point]
- Potency [2]: active: 16.4 µM
- Potency [12]: inconclusive: 28.2 µM [cytotoxic, single point]
- Potency [13]: inconclusive: 28.2 µM [cytotoxic, single point]
- Potency [14]: inconclusive: 22.4 µM [cytotoxic, single point]
- Potency [11]: active: 20 µM
- Potency [18]: inconclusive: 39.8 µM [cytotoxic, single point]

SMILES: COc1ccc(C2COc3cc(O)ccc3C2)c(O)c1 (stereo unspecified)
- Potency [4]: inconclusive: 9.16 µM [inhibitor, partial curve]
- Potency [5]: inconclusive: 14.5 µM [inhibitor, partial curve]
- max response [1]: inactive: -2.17%
- Potency [6]: inconclusive: 32.6 µM [inhibitor, partial curve, poor fit]

SMILES: CC1(C)CC[C@]2(C(=O)O[C@@H]3O[C@H](CO)[C@@H](O)[C@H](O)[C@H]3O)CC[C@]3(C)C(=CCC4[C@@]5(C)CC[C@H](O[C@@H]6O[C@H](C(=O)O)[C@@H](O)[C@H](O[C@@H]7O[C@H](CO)[C@H](O)[C@H](O)[C@H]7O)[C@H]6O)C(C)(C)C5CC[C@]43C)C2C1 (stereo partly specified)
- Potency [10]: inactive
- activity change, negative = cell killing [5]: inactive: -15.1% [at 9.23 µM]
- max response [1]: inactive: -0.842%
- Potency [6]: inconclusive: 0.0062 µM [inhibitor, full curve, poor fit]

SMILES: CC(C)(C)NCc1cc(Nc2ccnc3cc(Cl)ccc23)c2c(c1O)CCCC2
- activity change, negative = cell killing [5]: inactive: -13.7% [at 0.588 µM]
- max response [1]: inactive: 1.77%
- max response [6]: inactive: -6.14%
- activity change, negative = cytotoxicity [17]: inactive: 2.67% [at 0.462 µM]
- activity change, negative = cytotoxicity [20]: inactive: 20.2% [at 0.462 µM]

SMILES: C[C@@H]1CC[C@]2(C(=O)O)CC[C@]3(C)C(=CCC4[C@@]5(C)C[C@@H](O)[C@H](O)[C@@](C)(CO)C5CC[C@]43C)C2[C@]1(C)O (stereo partly specified)
- Potency [10]: inconclusive: 15.8 µM [inhibitor, partial curve]
- Potency [5]: inactive
- max response [1]: inactive: -3.26%
- max response [6]: inactive: 4.14%
- Potency [18]: inconclusive: 0.708 µM [cytotoxic, single point]

— PubChem BioAssay (NCATS)
